Measured values: PubChem BioAssay AID463173 (ICCB-Longwood Screening Facility, Harvard Medical School, 2010)
The whole screen tested about 52,000 compounds, of which about 1,700 (3.3%) were called active. Rule as the data show it: active = survival mostly below about 52% (no sharp cut-off); inactive = mostly above about 56%. The list shows a part of the results.

The compounds below were run on Wild type (assay: S. aureus survival, RN4220 and DeltatarO strains – OD600, teichoic acid synthesis inhibitors, primary screen (AID 463173)). Settings: S. aureus RN4220 wild type/DeltatarO growth, OD600, 18 h, stronger effect = lower value, screened at 18.75 µg/mL (by protocol).

Q: For `Cc1ccccc1C(=O)NNc1ncnc2c1cnn2-c1cccc(Cl)c1`, which survival is on record?
A: The survival was inactive: 73%.

Q: For `CC(=O)c1ccc(NC(=O)CC2Nc3cc(C)c(C)cc3NC2=O)cc1` (centres undefined), which survival is on record?
A: The survival was inactive: 78%.

Q: How did the survival turn out when `CCC1Oc2ccc(C)cc2N(CC(=O)N2CCN(c3ccccc3OC)CC2)C1=O` (centres undefined) was run?
A: Its survival is inactive: 63%.

Q: How did the survival turn out when `Cc1noc(C)c1S(=O)(=O)N(CC(=O)NCCc1ccc(Cl)cc1)c1ccc(C(C)C)cc1` was run?
A: Its survival is inactive: 85%.

Q: Which survival does the source give for `CCOc1ccc(Nc2nc(C)c(NC(=O)c3cccc(F)c3)c(Nc3ccc(OCC)cc3)n2)cc1` here?
A: Its survival is inactive: 141%.

Q: For `COc1cccc(-c2oc3ccc(C)cc3c(=O)c2O)c1`, which survival is on record?
A: The survival was inactive: 78%.

Q: For `CC1CCN(S(=O)(=O)c2ccc(NC(=O)CSc3nnnn3C)cc2)CC1`, which survival is on record?
A: Its survival is inactive: 108%.

Q: How did the survival turn out when `N#Cc1cc2cc3c(cc2nc1SCC(=O)NC1CCCCC1)OCCO3` was run?
A: Its survival is inactive: 103%.

Q: For `CCOC(=O)c1c(S(=O)(=O)N2CCCC(C(=O)Nc3ccccn3)C2)c(C)n(C)c1C` (centres undefined), which survival is on record?
A: Its survival is inactive: 82%.

Q: `COc1cc(CNC(=O)C2CCCCN2S(=O)(=O)c2ccc(F)cc2)cc(OC)c1OC` (centres undefined) was tested. Which survival did it give?
A: Its survival is inactive: 77%.

Q: Which survival does the source give for `CCc1cccc(NC(=O)CN2Cc3ccccc3C2=O)c1` here?
A: The survival was inactive: 131%.

Q: For `CCOc1ccc(C2CC(=O)Nc3cc4c(cc32)OCO4)cc1OC` (centres undefined), which survival is on record?
A: Its survival is inactive: 124%.

Q: How did the survival turn out when `COc1ccc(-c2cc(C)no2)cc1S(=O)(=O)NCc1cccs1` was run?
A: The survival was inactive: 93%.

Q: How did the survival turn out when `COc1ccccc1CNC(=O)c1cccn1-c1nnc(N2CCCCC2)s1` was run?
A: Its survival is active: 10%.

Q: `COc1ccc(CN2CCc3c(c(=O)n4ncc(C(=O)N5CCN(c6ccc(F)cc6)CC5)c4n3C)C2)cc1` was tested. Which survival did it give?
A: The survival was inactive: 78%.

Q: How did the survival turn out when `COC(=O)c1c(NC(=O)Cc2coc3cc(C)ccc23)sc2c1CCCC2` was run?
A: Its survival is inactive: 85%.

Q: With `Cc1ccc(CNC(=O)C2CCN(S(=O)(=O)c3ccc(F)cc3)CC2)cc1` as the compound, how does the survival read?
A: The survival was inactive: 73%.

Q: Which survival does the source give for `CC(=O)N1CCc2c(sc3c2c(=O)n(-c2ccc(C)cc2)c(=O)n3Cc2c(F)cccc2Cl)C1` here?
A: Its survival is inactive: 133%.

Q: Which survival does the source give for `COc1ccc(CNC(=O)c2cc(-c3ccc(OC)cc3)nc3n[nH]c(-c4cccc([N+](=O)[O-])c4)c23)cc1` here?
A: The survival was inactive: 86%.

Q: `Cc1ccc2cccc(NC(=O)COc3ccccc3Cl)c2n1` was tested. Which survival did it give?
A: The survival was inactive: 134%.

Q: For `Cc1ccc(C)c(Cn2c(CCCNC(=O)C3CCCCC3)nc3ccccc32)c1`, which survival is on record?
A: The survival was inactive: 91%.

Q: With `CCCOc1cccc(C2c3c(oc4ccccc4c3=O)C(=O)N2c2nncs2)c1` (centres undefined) as the compound, how does the survival read?
A: The survival was inactive: 98%.

Q: Which survival does the source give for `Cc1ccc(-c2nc(CS(=O)CC(=O)N3CCN(c4cccc(Cl)c4)CC3)c(C)o2)cc1` (centres undefined) here?
A: Its survival is active: 5%.

Q: With `COc1cccc(C(=O)c2cn(CC(=O)NCc3ccccc3Cl)c3nc(C)ccc3c2=O)c1` as the compound, how does the survival read?
A: Its survival is inactive: 94%.
